These results are taken from PubChem BioAssay AID485344 (National Center for Advancing Translational Sciences (NCATS), 2010).

About 6,900 (2%) of roughly 340,000 compounds were called active. Cut-off read from the data, not from the text of the source: active = inhibition above about 30%; inactive = below that, where a call was filed. Only a part is listed here, and it is no random draw. Where no call is shown, the source filed none.

The target of this assay is D(2) dopamine receptor (Homo sapiens) (UniProt P14416). The experiment in a line: HTS Assay for Allosteric Antagonists of the Human D2 Dopamine Receptor: Primary Screen for Antagonists. Note: 0% is about no effect. To be noted: HEK293 TREx D2 cells, calcium flux, dopamine EC80; at 10 µM; stronger effect = higher value. Summed up: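 Calcium mobilization kinetics were recorded at 1 s intervals in tetracycline-induced HEK293 T-REx D2 cells, first for 180 s after compound addition and then 180 s after EC80 dopamine.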
UniProt P14416, sequence (P14416 whole entry, looked up): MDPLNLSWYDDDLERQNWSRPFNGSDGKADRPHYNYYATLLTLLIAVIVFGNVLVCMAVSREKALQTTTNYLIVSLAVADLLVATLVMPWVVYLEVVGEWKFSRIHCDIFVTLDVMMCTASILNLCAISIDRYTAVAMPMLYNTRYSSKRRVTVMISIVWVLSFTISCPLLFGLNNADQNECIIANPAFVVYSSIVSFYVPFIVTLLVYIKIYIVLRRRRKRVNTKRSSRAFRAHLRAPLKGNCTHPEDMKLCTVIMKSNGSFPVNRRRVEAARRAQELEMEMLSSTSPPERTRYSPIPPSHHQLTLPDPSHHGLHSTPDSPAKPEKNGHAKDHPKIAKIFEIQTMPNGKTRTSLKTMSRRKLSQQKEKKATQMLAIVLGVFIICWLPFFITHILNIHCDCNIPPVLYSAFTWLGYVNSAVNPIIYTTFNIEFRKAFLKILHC
(In general: Calcium assays in cells follow changes in intracellular calcium, usually with a dye or a luminescent sensor.)
On to `CCN(CC)S(=O)(=O)c1ccc(NC(=O)CCc2c(C)nc3cc(-c4ccc(Cl)cc4)nn3c2C)cc1`, for which the inhibition (as a rule, the drop in the measured response relative to a control, in per cent) was 5.27%. The result for `CN(C)c1ccc(C(CNS(=O)(=O)c2ccc(Br)cc2)N2CCCC2)cc1` (stereo unspecified) reads -1.55%; that for `CC(C)Cc1nn2c(=O)cc(COC(=O)c3ccc4c(c3)OCO4)nc2s1`, 7.68%; that for `COc1ccc(Cl)cc1NC(=O)CSc1ccc(-c2sc(C)nc2C)nn1`, -6.72%.

As to `CCOC(=O)c1cc2c(=O)n3ccccc3nc2n(CCCOC)c1=NC(=O)C(C)(C)Oc1ccc(Cl)cc1`, the inhibition came out at 10.8%. On to `Cc1cc(C)cc(NC(=O)CCc2nnc3n(CC(C)C)c(=O)c4ccccc4n23)c1`, for which the inhibition is -7.82%.

`CC(C)N(Cc1ccccc1)C(=O)CN1C(=O)COc2ccc(S(=O)(=O)NC3CCCC3)cc21`: the inhibition is -1.68%. As for `COc1cc(CNc2ccc3[nH]c(=O)[nH]c3c2)ccc1OCc1ccccc1F`, the inhibition was determined as 10.3%. The result for `CCN(C(=O)CSc1nc2ccccc2n1CC(=O)Nc1ccccc1C)c1ccccc1` reads -7.63%; that for `COc1ccc(-n2ccn(Cc3ccccc3Cl)c(=O)c2=O)cc1OC`, 14.1%. Take `COc1ccc(S(=O)(=O)N2CCC(N3CCN(Cc4ccccc4)CC3)CC2)cc1`: the inhibition is active: 73.5%. In the case of `Cc1ccc(C)c(NC(=O)CSc2ncc3c(n2)-c2ccc(Cl)cc2N(C)S3(=O)=O)c1`, the inhibition was -3.51%. Regarding `CCCn1c(CCC(=O)Nc2cc(Cl)c(OC)cc2OC)nc2cccnc21`, the inhibition is -25.7%. In the case of `O=C(CCSCc1ccccc1Cl)N1CCN(c2cccc(Cl)c2)CC1`, the inhibition was -4.1%. The result for `COc1ccc(NC(=O)CC2C(=O)N(c3ccc(C)cc3)C(=O)N2C2CCCCC2)cc1` (stereo unspecified) reads -7.76%; that for `CC(=O)OC(COc1ccccc1)Cn1cnc2cc(C)c(C)cc21` (stereo unspecified), 4.37%. For `CCn1nc(-c2ccccc2)c(-c2ccccc2)c(C(=O)Nc2nc(C)c(C(=O)N(C)C)s2)c1=O`, the inhibition was -1.05%.

For `CCc1nc2cccnc2n1-c1ccc(CC(=O)Nc2ccc(C)cc2)cc1`, the inhibition was 16.1%. `CCOc1ccc(CNC(=O)c2cnc3sc(N(CC)CC)nn3c2=O)cc1OC`: the inhibition was 3.51%.

Take `O=C(Cn1c(=O)n(-c2ccccc2Cl)c(=O)c2sc3ccccc3c21)N1CCCC1`: the inhibition came out at 0.616%. Take `COc1cccc(-n2c([S-])c(C(=O)Nc3ccc(C(F)(F)F)cc3)[n+]3ccccc23)c1`: the inhibition is active: 35.1%. The result for `CCOC(=O)c1c(C)[nH]c(CCC(=O)NCCCN2CCN(c3cc(C)ccc3C)CC2)c1C` reads 23.5%; that for `CCCN1CCN(CCCNC(=O)c2ccc3c(=O)n(CCc4ccccc4)c(=O)[nH]c3c2)CC1`, active: 30.5%. As to `COc1ccccc1NC(=O)NCCCN1CCN(c2cccc(Cl)c2)CC1`, the inhibition is active: 63.1%. For `COc1ccccc1CNC(=O)CN1C(=O)CSc2ccc(S(=O)(=O)N(C)C)cc21`, the inhibition is 1.99%.

`CCOc1ccc(S(=O)(=O)N2CCN(c3ccc(Cl)c(Cl)c3)CC2)c2ccccc12`: the inhibition is -22.8%. In the case of `CCOC(=O)c1ccc2c(c1)N(Cc1ccccc1)C(=O)c1ccccc1S2`, the inhibition came out at 20.9%.

Consider `CC(C)CCn1c(=O)c2sccc2n2c(CCCC(=O)NC3CCC(C)CC3)nnc12` (stereo unspecified), for which the inhibition came out at 7.75%. On to `CCCCc1ccc(NC(=O)CSc2nc3ccccc3nc2N2CCOCC2)cc1`, for which the inhibition is 1.09%.

As to `CC1=CS/C(=C(/C#N)C(=O)NCc2ccco2)N1c1ccccc1`, the inhibition was active: 30.5%. `O=C(Nc1cc(Cl)cc(Cl)c1)c1ccc(F)c(S(=O)(=O)NC2CCCCC2)c1`: the inhibition was -10.1%.

As for `O=C(NCCS(=O)(=O)N1CCN(c2ccc(F)cc2)CC1)C1CC(=O)N(c2ccc(F)cc2)C1` (stereo unspecified), the inhibition was determined as 20.7%. Consider `COc1ccc(CCNC(=O)CCSCc2ccccc2Cl)cc1OC`, for which the inhibition is 14.7%. On to `COc1cccc(-c2cc(C(=O)Nc3ccn(Cc4ccc(C)cc4)n3)no2)c1`, for which the inhibition is -28.2%.

For `CCc1ccccc1NC(=O)Cn1c(=O)n(Cc2ccco2)c(=O)c2sc3ccccc3c21`, the inhibition was -1.04%. Turning to `Cc1ccc(NC(=O)Cn2c(=O)n(Cc3ccc4c(c3)OCO4)c(=O)c3ccccc32)c(C)c1`, the inhibition was -13.5%.

For the compound `Cc1ccc(C)c(N2CCN(S(=O)(=O)c3cnc(N)nc3)CC2)c1`, the inhibition is -2.59%. Consider `Cc1ccc2nc(N3CCN(c4cccc(C)c4C)CC3)c3nncn3c2c1`, for which the inhibition is 11.3%. On to `COc1ccc(C(C)(C)NC(=O)C2CCC(=O)N(CCCN3CCCC3=O)C2)cc1` (stereo unspecified), for which the inhibition is active: 33.4%. As to `CC(=O)c1ccc(N2CCN(c3ncnc4onc(C)c34)CC2)cc1`, the inhibition is -0.177%. In the case of `COc1ccc(OCC(=O)Nc2ccccc2C(=O)OCc2cc(=O)n3nc(C)sc3n2)cc1`, the inhibition turned out to be 9.15%. Take `O=C(NCCN1CCCCC1)c1ccc(Cn2c(SCc3cccc(F)c3)nc3cccnc32)cc1`: the inhibition is -26.4%. On to `COC(=O)c1ccc(CSc2nc3c(c(=O)[nH]2)CCC3)cc1`, for which the inhibition amounted to 6.6%. Consider `OC(COCC1COc2ccccc2O1)CN1CCN(c2ccccc2)CC1` (stereo unspecified), for which the inhibition is active: 59.9%. Regarding `Cc1cccc(OCC(=O)N(Cc2ccccc2)c2ccccn2)c1`, the inhibition was -8.28%. The result for `COc1ccc(CCNC(=O)c2ccc3c(Cl)c4c(nc3c2)CCCC4)c(OC)c1` reads 3.72%; that for `COC(=O)c1cnc(N2CCN(c3ccc(F)cc3)CC2)c2ccccc12`, 4.27%; that for `Cc1ccc(SCC(=O)NC(C)(C)C)cc1`, active: 36.8%. The result for `COc1ccc(C2C(=O)N(C3CCCCCC3)CC(=O)N2CCC2=CCCCC2)cc1` (stereo unspecified) reads 1.51%; that for `CS(=O)(=O)N1CCCc2cc(C(=O)Nc3cccc(C(F)(F)F)c3)ccc21`, -5.39%. For the compound `COc1cccc(CNC(=O)C(=O)Nc2ccc3nc4n(c(=O)c3c2)CCCCC4)c1`, the inhibition came out at 10.4%. The result for `Cc1ccc(-c2cc(C(=O)Oc3ccccc3Cl)no2)cc1C` reads -1.22%. As to `Cc1ccc(N2CCN(C(=O)c3cc(S(=O)(=O)N4CCCCC4)c[nH]3)CC2)c(C)c1`, the inhibition is -3.76%. The result for `Cc1ccc2nc(Cl)c3cc(C(=O)NC4CCC(C)CC4)sc3c2c1` (stereo unspecified) reads 5.97%; that for `CCc1ccc(OCC(=O)Nc2ccc(-c3nc4ncccc4o3)cc2)cc1`, -0.276%. Regarding `Cc1ccc2c(c1C)NC(=O)CC2c1ccc(Cl)cc1Cl` (stereo unspecified), the inhibition was -5.27%.

Turning to `Cc1ccc(OCC(=O)Nc2cccc(C(=O)OCc3cc(=O)n4nc(C)sc4n3)c2)cc1`, the inhibition is -4.26%. The result for `CCC(O)c1cc2c(cc1NC(=O)c1ccccc1F)OCCO2` (stereo unspecified) reads 11.1%; that for `O=C(CC1N=C2c3ccccc3N=C(SCc3cccc(F)c3)N2C1=O)NCc1ccc2c(c1)OCO2` (stereo unspecified), -3.58%; that for `OCCOCCN1CCN(C(c2ccccc2)c2ccc(Cl)cc2)CC1` (stereo unspecified), active: 72%.

As for `O=C(O)c1ccc(NC(=O)c2cn(-c3ccccc3)nc2-c2ccc(Br)cc2)cc1`, the inhibition is 4.05%. With `COc1ccc(-c2noc(COc3ccc(Br)cc3C)n2)cc1OC`, the inhibition stood at 15%. The result for `c1ccc(-c2nnc(CN3CCN(c4ccccc4)CC3)o2)cc1` reads -8.94%; that for `CCc1cccc(C)c1NC(=O)Cn1ccn(Cc2ccc(Cl)cc2)c(=O)c1=O`, 19%; that for `COc1ccc(NC(=O)CN(C)S(=O)(=O)c2cnc[nH]2)cc1Cl`, -13.8%. Turning to `Cc1ccc(-c2[nH]c(-c3ccccc3)nc2SCC(=O)NCC2CCCO2)cc1` (stereo unspecified), the inhibition stood at 23.8%.

As for `COc1ccc(OC)c(CCNC(=O)C2=C(C)C(=O)OC23CCC(C)CC3)c1` (stereo unspecified), the inhibition was -8.26%. In the case of `O=C(Cn1nc(C(F)(F)F)c2c1CCC2)Nc1ccc(Cl)cc1`, the inhibition is 8.8%. Turning to `CCN(CC)c1ccc2cc(-c3nc4ccccc4[nH]3)c(=O)oc2c1`, the inhibition was active: 76.3%. In the case of `Cc1cc(C)c2c(CC(=O)Nc3ccc(S(=O)(=O)Nc4ncccn4)cc3)coc2c1`, the inhibition is -1.04%. For the compound `O=c1[nH]cnc2c1ncn2[C@@H]1C[C@@H](O)[C@H](CO)O1`, the inhibition is active: 38.4%. With `CCN(Cc1ccccc1)C(=O)CN1C(=O)COc2ccc(S(=O)(=O)N(CC)CC)cc21`, the inhibition was -3.51%.

Consider `COc1ccccc1Nc1nc(-c2ccccc2Cl)c2cc(Br)ccc2n1`, for which the inhibition was -10.3%. The result for `Cc1ccc(C)c(N2CCN(C(=O)CCn3c(=O)c4cccn4c4cccnc43)CC2)c1` reads -2.52%; that for `COc1ccccc1NC(=O)CCS(=O)(=O)c1cc2c3c(c1)CCN3C(=O)CC2`, 3.54%. As to `O=C(c1cccs1)N1CCN(CCc2ccccc2)CC1`, the inhibition is active: 42.5%. As for `O=C(NCc1ccccc1Cl)c1cc(=O)[nH]c2ccc(S(=O)(=O)N3CCCCC3)cc12`, the inhibition came out at 19.7%. The result for `CCC1CCCCN1C(=O)c1nn(-c2ccc(OC)cc2)c(=O)c2c1c1ccccc1n2C` (stereo unspecified) reads 3.92%; that for `COC(=O)c1cc(NC(=O)c2sc3ncn(Cc4cccc(F)c4)c(=O)c3c2C)cc(C(=O)OC)c1`, -14.1%. For `CCOc1ccc(C(=O)NCCn2cc(SCC(=O)Nc3ccccc3)c3ccccc32)cc1`, the inhibition is -9.37%.

With `Cc1ccc(-n2c(SCC(=O)NCc3ccccc3)nc3c([nH]c4ccccc43)c2=O)cc1`, the inhibition stood at 3.09%. Take `COc1cc(CN(C(=O)c2cccc(C)c2)c2ccccn2)cc(OC)c1OC`: the inhibition is -12.7%. As to `CC(C)c1ccc2c(c1)-c1ccccc1S(=O)(=O)N2CC(=O)N1CCCCC1`, the inhibition is -23.6%. Regarding `COc1cc(Cn2c(=O)sc3ccccc32)ccc1OCCC(C)C`, the inhibition was -5.38%.

Regarding `CCCSc1nc(=S)n(Cc2ccccc2)c(C)c1C(C)=O`, the inhibition is active: 43.1%. The result for `O=C(CSc1ncc(-c2ccccc2)[nH]1)Nc1cccc(C(F)(F)F)c1` reads 20.3%; that for `Cc1cc(Cl)ccc1OCC(=O)Nc1c(C(=O)c2ccccc2)oc2ccccc12`, 12.6%. For `Cn1c(=O)cc(SCC(=O)N2CCN(c3ccccc3F)CC2)c2cc(Cl)ccc21`, the inhibition was found to be 0.351%. For the compound `COc1ccc(CNC(=O)CSc2n[nH]c(-c3ccc(OC)cc3)n2)cc1`, the inhibition turned out to be 18.9%. In the case of `Cc1ccc(NC(=O)c2cc3c([nH]c2=O)CC(C)(C)CC3=O)c(C)c1`, the inhibition is -0.754%.

`COc1ccc(-c2cc(C(C)=O)c(C)n2CCC(=O)Nc2ccc(C(F)(F)F)cc2)cc1`: the inhibition is -0.457%. The result for `CCOc1cc(CN2CCN(c3ncccn3)CC2)ccc1OC` reads active: 77.3%. As to `Nc1nonc1C(=O)NCCNCc1ccc(Cl)c(Cl)c1`, the inhibition was -21.3%. The result for `CCn1ccc2c(OCC(=O)NCc3ccc(C)cc3)cccc2c1=O` reads 20.3%. Regarding `COc1ccccc1NC(=O)Cn1c(=O)n(Cc2ccccc2)c(=O)c2c3c(sc21)CN(C(C)=O)CC3`, the inhibition was -6.73%. Consider `Cc1cc(C)nc(-n2nc(C)c3c2NC(=O)CC3c2cc(F)ccc2F)n1` (stereo unspecified), for which the inhibition came to 5.15%.
